Two molecules from PMC9176254 can be followed below.

By UniProt entry, the sequences of proteins in these tests, tags left out.
UniProt Q9C5G0: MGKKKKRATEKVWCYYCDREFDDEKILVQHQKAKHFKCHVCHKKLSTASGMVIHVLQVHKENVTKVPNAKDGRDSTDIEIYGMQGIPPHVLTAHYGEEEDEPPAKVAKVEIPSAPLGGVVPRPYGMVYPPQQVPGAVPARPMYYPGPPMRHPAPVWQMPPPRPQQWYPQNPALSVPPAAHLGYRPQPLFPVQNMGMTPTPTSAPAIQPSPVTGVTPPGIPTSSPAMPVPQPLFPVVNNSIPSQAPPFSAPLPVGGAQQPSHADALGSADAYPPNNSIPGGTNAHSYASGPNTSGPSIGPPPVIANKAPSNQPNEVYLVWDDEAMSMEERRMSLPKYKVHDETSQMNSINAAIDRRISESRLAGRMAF

Results are given in words; binding and its absence hold for the method and conditions named. Some results given as binding are weak or reduced against the parent protein; the word gives no strength.

Holding throughout (assay): two-hybrid; AD (pGADT7) and BD (pGBKT7) vectors co-transformed into Y2HGold yeast; growth on SD-Ade/-His/-Leu/-Trp against SD-Leu/-Trp
In experiment [1] the target is T1, FLC EXPRESSOR (FLX) (Arabidopsis thaliana) (UniProt F4IMQ0).
T1 sequence: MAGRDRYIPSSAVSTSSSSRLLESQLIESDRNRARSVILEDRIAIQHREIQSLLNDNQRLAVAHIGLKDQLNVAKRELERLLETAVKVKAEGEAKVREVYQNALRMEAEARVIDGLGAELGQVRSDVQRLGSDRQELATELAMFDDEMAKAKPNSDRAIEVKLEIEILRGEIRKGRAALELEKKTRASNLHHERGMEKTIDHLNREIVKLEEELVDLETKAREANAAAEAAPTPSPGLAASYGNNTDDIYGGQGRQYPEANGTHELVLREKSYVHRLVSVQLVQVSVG

The target in experiment [2] is T2, C-TERMINAL DOMAIN PHOSPHATASE-LIKE 3 (CPL3) (Arabidopsis thaliana) (UniProt Q8LL04).
T2 sequence: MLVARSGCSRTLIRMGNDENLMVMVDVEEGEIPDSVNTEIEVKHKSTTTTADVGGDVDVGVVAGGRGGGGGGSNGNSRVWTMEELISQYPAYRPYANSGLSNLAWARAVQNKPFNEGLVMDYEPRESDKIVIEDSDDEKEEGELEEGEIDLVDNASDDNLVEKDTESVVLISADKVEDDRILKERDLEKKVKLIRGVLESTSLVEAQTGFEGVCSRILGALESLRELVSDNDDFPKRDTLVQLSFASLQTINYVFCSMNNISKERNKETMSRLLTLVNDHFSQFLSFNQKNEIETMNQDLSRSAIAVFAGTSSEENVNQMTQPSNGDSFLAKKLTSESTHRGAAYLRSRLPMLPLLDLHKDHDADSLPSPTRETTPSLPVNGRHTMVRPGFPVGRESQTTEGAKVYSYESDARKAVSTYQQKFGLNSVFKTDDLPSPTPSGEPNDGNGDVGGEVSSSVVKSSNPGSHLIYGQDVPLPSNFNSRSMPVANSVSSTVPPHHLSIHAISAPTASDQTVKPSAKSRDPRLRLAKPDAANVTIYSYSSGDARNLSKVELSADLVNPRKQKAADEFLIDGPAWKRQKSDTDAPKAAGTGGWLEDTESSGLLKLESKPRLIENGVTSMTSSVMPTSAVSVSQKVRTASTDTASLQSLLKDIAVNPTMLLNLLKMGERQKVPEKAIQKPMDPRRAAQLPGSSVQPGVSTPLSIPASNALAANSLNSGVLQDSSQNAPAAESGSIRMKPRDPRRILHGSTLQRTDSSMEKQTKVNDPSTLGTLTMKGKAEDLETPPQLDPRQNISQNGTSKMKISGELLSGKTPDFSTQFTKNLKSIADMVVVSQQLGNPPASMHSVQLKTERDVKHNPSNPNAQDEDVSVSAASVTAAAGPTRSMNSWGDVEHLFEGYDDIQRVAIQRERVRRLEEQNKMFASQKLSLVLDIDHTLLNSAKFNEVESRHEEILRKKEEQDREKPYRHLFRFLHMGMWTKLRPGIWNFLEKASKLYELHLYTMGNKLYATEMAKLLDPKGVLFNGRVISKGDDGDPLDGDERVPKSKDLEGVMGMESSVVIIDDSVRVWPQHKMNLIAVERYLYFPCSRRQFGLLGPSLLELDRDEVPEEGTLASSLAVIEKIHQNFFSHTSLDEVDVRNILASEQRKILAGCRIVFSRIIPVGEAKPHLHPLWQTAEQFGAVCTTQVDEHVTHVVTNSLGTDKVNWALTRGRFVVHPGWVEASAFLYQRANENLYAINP

The target of experiment [3] is T3, FLX-LIKE 4 (FLX4) (Arabidopsis thaliana) (UniProt Q9FH51).
T3 sequence: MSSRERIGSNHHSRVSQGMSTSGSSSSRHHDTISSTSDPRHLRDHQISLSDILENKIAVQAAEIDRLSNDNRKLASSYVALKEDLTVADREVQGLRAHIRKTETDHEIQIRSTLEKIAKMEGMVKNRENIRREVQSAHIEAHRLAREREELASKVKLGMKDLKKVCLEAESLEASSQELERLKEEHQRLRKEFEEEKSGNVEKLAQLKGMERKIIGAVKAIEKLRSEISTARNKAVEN

Experiment [4] concerns the target SUPPRESSOR OF FRI 4 (SUF4) (Arabidopsis thaliana) (UniProt Q9C5G0).
Experiment [5] addresses T4, FRI … 1 (FES1) (Arabidopsis thaliana) (UniProt Q84VG7).
T4 sequence: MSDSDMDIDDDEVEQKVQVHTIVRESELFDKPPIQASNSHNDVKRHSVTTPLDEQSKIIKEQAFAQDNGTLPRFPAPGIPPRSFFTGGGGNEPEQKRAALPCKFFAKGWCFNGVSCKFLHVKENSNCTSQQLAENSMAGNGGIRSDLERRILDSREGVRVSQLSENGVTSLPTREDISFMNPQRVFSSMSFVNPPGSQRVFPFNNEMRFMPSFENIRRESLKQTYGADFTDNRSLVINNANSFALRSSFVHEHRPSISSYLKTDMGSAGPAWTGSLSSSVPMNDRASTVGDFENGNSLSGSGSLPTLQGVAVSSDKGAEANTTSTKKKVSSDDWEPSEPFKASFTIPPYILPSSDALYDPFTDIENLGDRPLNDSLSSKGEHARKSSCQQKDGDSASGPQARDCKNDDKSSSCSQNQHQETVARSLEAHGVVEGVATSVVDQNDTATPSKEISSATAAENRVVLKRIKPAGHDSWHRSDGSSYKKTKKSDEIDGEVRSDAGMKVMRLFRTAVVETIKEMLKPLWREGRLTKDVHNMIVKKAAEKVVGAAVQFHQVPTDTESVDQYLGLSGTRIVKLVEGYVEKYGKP

B1: C-TERMINAL DOMAIN PHOSPHATASE-LIKE 2 (CPL2) (protein, UniProt Q5YDB5 1-770)
chain: MNRLGHKSVVYHGDLRLGELDVNHVSSSHEFRFPNDEIRIHHLSPAGERCPPLAILQTIASFAVRCKLESSAPVKSQELMHLHAVCFHELKTAVVMLGDEEIHLVAMPSKEKKFPCFWCFSVPSGLYDSCLRMLNTRCLSIVFDLDETLIVANTMKSFEDRIEALKSWISREMDPVRINGMSAELKRYMDDRMLLKQYIDNDYAFDNGVLLKAQPEEVRPTSDGQEKVCRPVIRLPEKNTVLTRIKPEIRDTSVLVKLRPAWEELRSYLTAKTRKRFEVYVCTMAERDYALEMWRLLDPEAHLISLKELRDRIVCVKPDAKKSLLSVFNGGICHPKMAMVIDDRMKVWEDKDQPRVHVVSAYLPYYAPQAETALVVPHLCVARNVACNVRGYFFKEFDESLMSSISLVYYEDDVENLPPSPDVSNYVVIEDPGFASNGNINAPPINEGMCGGEVERRLNQAAAADHSTLPATSNAEQKPETPKPQIAVIPNNASTATAAALLPSHKPSLLGAPRRDGFTFSDGGRPLMMRPGVDIRNQNFNQPPILAKIPMQPPSSSMHSPGGWLVDDENRPSFPGRPSGLYPSQFPHGTPGSAPVGPFAHPSHLRSEEVAMDDDLKRQNPSRQTTEGGISQNHLVSNGREHHTDGGKSNGGQSHLFVSALQEIGRRCGSKVEFRTVISTNKELQFSVEVLFTGEKIGIGMAKTKKDAHQQAAENALRSLAEKYVAHVAPLARETEKGPENDNGFLWESSEDVSNKGLEEEAPKENISEL
Consider B1, for which the binding entry in experiment [1] and in experiment [2] was “binds” throughout.

B2: CPL4 (protein, UniProt Q00IB6 1-440)
chain: MSVASDSPVHSSSSSDDLAAFLDAELDSASDASSGPSEEEEAEDDVESGLKRQKLEHLEEASSSKGECEHPGSFGNMCFVCGQKLEETGVSFRYIHKEMRLNEDEISRLRDSDSRFLQRQRKLYLVLDLDHTLLNTTILRDLKPEEEYLKSHTHSLQDGCNVSGGSLFLLEFMQMMTKLRPFVHSFLKEASEMFVMYIYTMGDRNYARQMAKLLDPKGEYFGDRVISRDDGTVRHEKSLDVVLGQESAVLILDDTENAWPKHKDNLIVIERYHFFSSSCRQFDHRYKSLSELKSDESEPDGALATVLKVLKQAHALFFENVDEGISNRDVRLMLKQVRKEILKGCKIVFSRVFPTKAKPEDHPLWKMAEELGATCATEVDASVTHVVAMDVGTEKARWAVREKKYVVHRGWIDAANYLWMKQPEENFGLEQLKKQLTEEE
As to B2, the binding result in experiment [3], in experiment [4], in experiment [5], in experiment [1] and in experiment [2] was “no binding” in each case.
